# Assay results as given in ChEMBL document CHEMBL1201862, “PubChem BioAssay data set” (2004).
#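 All cell lines were grown in 96-well plates and treated with compound for 48 hours. GI50: concentration for 50% inhibition of growth.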 Active and inactive are the calls of the source. Rule as the data show it: active = GI50 up to about 1.1 µM and inactive = higher.
# Tested on: NCI-H322M
# Assay: growth of human tumour cells (NCI), 48 h
row,Structure (SMILES),GI50
1,N=C(N)SC(c1ccccc1)c1ccccc1,inactive: 22 µM
2,COc1ccc2c(c1)c1ccc3c(c1n2C)C(=O)C=CC3=O,inactive: 22.9 µM
3,C=C(C)C1CC=C(C)CC1 (stereo unspecified),inactive: 968 µM
4,O=C1C=C(Nc2cccnc2)c2ccccc2C1=O,inactive: 17.4 µM
5,N#CC12CNCC1CN=N2 (stereo unspecified),inactive: > 100 µM
6,CN(C)CCn1c(CO)nc2c1c(=O)n(C)c(=O)n2C,inactive: > 100 µM
7,O=C(NCc1ccccc1)c1cc2ccccc2o/c1=N\c1ccccc1F,inactive: 28.8 µM
8,CC(C)OC(=O)c1ccc(NCC2=CC(=O)C=CC2=O)cc1Cl,inactive: 39.7 µM
9,COc1cc2c(cc1OC)C(=O)Cc1ccc(OC)c(OC)c1CN(C)CC2,inactive: 46.3 µM
10,O=C(c1ccccc1O)c1cc(-c2ncc3c(=O)c4ccccc4oc3n2)c(-c2ccccc2O)[nH]c1=O,inactive: 39.4 µM
11,O=C(CCN1CCCCC1CCO)Nc1ccc2c(c1)C(=O)c1ccc(NC(=O)CCN3CCCCC3CCO)cc1C2=O (stereo unspecified),inactive: 3.85 µM
12,Nc1ccc2c3c1cccc3c(=O)n1c3ccc(Cc4ccc5c(c4)nc4c6ccc(N)c7cccc(c(=O)n54)c76)cc3nc21,inactive: > 100 µM
13,CCNC(=S)N/N=C/c1cc(OC)ccc1O,inactive: > 100 µM
14,CCC12CCCNC1c1c(n(C)c3ccccc13)C(C(=O)OC)C2 (stereo unspecified),inactive: 75.3 µM
15,O=C(O)Cc1ccc2c(c1O)C(=O)c1c(ccc(CC(=O)O)c1O)C2=O,inactive: > 100 µM
16,CC(C)OC(=O)Nc1c([N+](=O)[O-])cc(C(F)(F)F)cc1[N+](=O)[O-],inactive: > 100 µM
17,COc1ccc(N2C(=O)CC(c3c[nH]c4ncccc34)C2=O)cc1 (stereo unspecified),inactive: > 100 µM
18,NC1=NN(c2ccccc2)C2(O)c3ccncc3C3=NN(c4ccccc4)C(=O)C132 (stereo unspecified),inactive: > 100 µM
19,N#CC(C(=O)c1cccnc1Cl)c1nc2cc(C(F)(F)F)ccc2s1 (stereo unspecified),inactive: 31.6 µM
20,NNc1nncn1N,inactive: > 100 µM
21,CC(CCC(=O)O)C(=O)O (stereo unspecified),inactive: > 100 µM
22,CCN(CC)c1ccc(/N=C2/C=CC(=O)c3ncccc32)c(C)c1,inactive: 16.1 µM
23,CSC1NC(c2ccc(Cl)cc2)=C(C#N)C(=O)N1C1OCC(OC(C)=O)C(OC(C)=O)C1OC(C)=O (stereo unspecified),inactive: > 100 µM

row,Structure (SMILES),GI50
1,N/C(=N\c1ccccc1)c1ccccc1N,inactive: > 100 µM
2,COC(=O)C1CCC(=O)N1CN(C(C)=O)c1ccccc1Cl (stereo unspecified),inactive: > 100 µM
3,CC(=O)N1c2cc(/N=N/N(C)C)ccc2NC(=O)CC1C (stereo unspecified),inactive: > 100 µM
4,C=CCOc1ccc2c(C)cc(=O)oc2c1C,inactive: > 100 µM
5,CCOC(=O)[C@H]1Nc2ccccc2C2c3ccccc3CC21 (stereo partly specified),inactive: 89.1 µM
6,O[C@@H]1C=C[C@]23CCN(Cc4cc5c(cc42)OCO5)[C@@H]3C1,inactive: 60.8 µM
7,CCOc1cc2c(C(=O)CC)c(O)ccc2o1,inactive: > 100 µM
8,C=CC(C)(C)C(=C)C(=O)N(C)c1ccccc1I,inactive: > 100 µM
9,CC(C)(C)OC(=O)NC(CCC(=O)OCc1ccccc1)C(=O)NCCCO (stereo unspecified),inactive: > 100 µM
10,Cc1nc2ccncc2[nH]1,inactive: > 100 µM
11,Cc1ccc(C)c(N2C(=O)C(=O)C(c3nc4ccccc4o3)C(=O)C2=O)c1,inactive: > 100 µM
12,Cc1ccc2c(c1)-c1nc(N)c(C#N)c(-c3ccc(Cl)cc3)c1CCS2(=O)=O,inactive: 27.6 µM
13,C[N+](C)(C)CC(=O)N/N=C/c1oc(-c2c(O)ccc3ccccc23)c(-c2c(O)ccc3ccccc23)c1[N+](=O)[O-],inactive: 18.8 µM
14,COc1cc(Cn2c3c(c4cc(O)ccc42)C(=O)c2ccccc2C3=O)cc(OC)c1,inactive: 15.2 µM
15,COc1ccc(N2C(=O)[C@H]3[C@H]4CC(C(C)(C)C)CC[C@H]4c4c(n(C)c5ccccc45)[C@H]3C2=O)cc1 (stereo partly specified),inactive: > 100 µM
16,O=C(c1ccccc1)n1[nH]c(=O)n(-c2ccc(Cl)cc2)c1=O,inactive: > 100 µM
17,N#Cc1c(N2CCCC2)nsc1NCc1ccccc1,inactive: > 100 µM
18,O=c1ccc2ccc(CBr)cc2o1,inactive: 14.5 µM
19,COC(=O)C1=C(C)NC(C)=C(C(=O)OC)C1c1cccc(NO)c1,inactive: > 100 µM
20,COc1cc2c(cc1OCc1ccccc1)NC(=O)[C@@H]1CCCN1C2=O,inactive: > 100 µM
21,Nc1nc(Cl)cc(NCC2(O)CC2)n1,inactive: > 100 µM
22,Cc1ccccc1C(=O)N1CCc2c([nH]c3ccccc23)C1,inactive: 36.5 µM
23,CCc1cccc(C(C)CC)c1NC(=O)C(=O)C(CC(=O)Nc1ccc(Cl)c(Cl)c1)C(=O)OC (stereo unspecified),inactive: > 100 µM

row,Structure (SMILES),GI50
1,CSc1ccc(/C=C2\N=C(c3ccccc3)N(/N=C/c3cc4cc(C)ccc4nc3Cl)C2=O)cc1,inactive: 40.6 µM
2,CCOC(=O)/C(C(N)=O)=C(O)/C(O)=C/C(=O)c1ccc(Cl)cc1,inactive: 34.4 µM
3,Cc1c(Cl)cccc1NC(=O)CC1C(=O)Nc2ccccc2S1(=O)=O (stereo unspecified),inactive: 20 µM
4,O=c1[nH]nc(Cc2ccccc2)n1N=C1CCCCC1,inactive: > 100 µM
5,CCOC(=O)c1[nH]cc(C)c1-c1ccc2c(-c3ccccc3)nc3ccccc3n12,inactive: 5.51 µM
6,Cc1c(C(=O)O)c2cc3ccccc3cc2c(=O)n1C,inactive: > 10 µM
7,Nn1c(-c2ccccc2Cl)nc2ccccc2c1=O,inactive: > 100 µM
8,CC(C)=CCC[C@@H](C)c1c2nc3ccccc3[nH]c-2c(C)c(=O)c1O,inactive: 1.35 µM
9,CCOC(=O)[C@@H]1ON2O[C@@H](OC3CCCCC3c3ccccc3)C[C@H]3OC(=O)[C@@H]1C32 (stereo partly specified),inactive: > 100 µM
10,COc1cc2c(cc1O)NC(=O)[C@@H]1CCCN1C2=O,inactive: > 100 µM
11,COc1ccc(/C=C2\CCCC(CN(C)C)C2=O)cc1 (stereo unspecified),inactive: 16.8 µM
12,CC(C)CCC[C@@H](C)[C@H]1CC[C@H]2[C@@H]3CC=C4C[C@@H](OC(=O)c5cccc6c(=O)c7ccccc7[nH]c56)CC[C@]4(C)[C@H]3CC[C@]12C,inactive: > 75 µM
13,N#CC1(C2CC(=O)N(c3ccccc3)C2=O)CCCCC1=O (stereo unspecified),inactive: > 100 µM
14,COc1ccc(C2SCC(=O)N2NC(=O)C(C)Oc2ccccc2Cl)cc1 (stereo unspecified),inactive: > 100 µM
15,CC(=O)OCC1C(C(C)OC(C)=O)CCC2C1CCC1(C)C(OC(C)=O)CCC21 (stereo unspecified),inactive: 17.9 µM
16,O=c1[nH]nc(-c2ccc3ccccc3c2)[nH]1,inactive: > 100 µM
17,O=c1[nH]c(=O)n(C2OC(CO)C(O)C2O)cc1/N=N/NCc1ccccc1 (stereo unspecified),inactive: > 100 µM
18,COc1cc(/C=C\c2ccncc2)cc(OC)c1OC,inactive: > 100 µM
19,OC1(c2ccc(Cl)cc2)C(N2CCCC2)c2ccccc2C2=NCCN21 (stereo unspecified),inactive: 18.6 µM
20,C1CCC(OC2CSC2)OC1 (stereo unspecified),inactive: > 100 µM
21,COc1ccc(-c2nc3ncccn3c2-c2ccc(SC)cc2)cc1,inactive: 1.83 µM
22,Cc1ccc(NC(=O)CCc2nnc(S)[nH]2)cc1,inactive: > 100 µM
23,CC1=C(C(=O)Nc2cc(=O)n(C)c(=O)n2C)C(c2ccco2)C(C(=O)Nc2cc(=O)n(C)c(=O)n2C)=C(C)N1,inactive: > 100 µM

row,Structure (SMILES),GI50
1,O=C1c2ccccc2C(=O)N1CC(CN1C(=O)c2ccccc2C1=O)(C(=O)OCc1ccccc1)C(=O)OCc1ccccc1,inactive: > 100 µM
2,COc1cc(NCCC2CCCCN2)c2ncccc2c1 (stereo unspecified),inactive: 99.5 µM
3,CC12CCC([C@H](C(O)C3CCCCC3)C1=O)C2(C)C (stereo partly specified),inactive: > 100 µM
4,CC1=C(C)SC(=C2Sc3[n-]c(=O)[nH]c(=O)c3S2)S1.CCCC[N+](CCCC)(CCCC)CCCC,inactive: > 100 µM
5,S=C(/N=c1\sc(Nc2ccc(Cl)cc2)nc2sc3c(c12)CCN(N1CCc2c(sc4nc(Nc5ccc(Cl)cc5)s/c(=N\C(=S)Nc5ccc(Cl)cc5)c24)C1)C3)Nc1ccc(Cl)cc1,inactive: 23.9 µM
6,COc1ccc(C2N(c3ccc(C)c(N=C=O)c3)C(=O)N3C(c4ccc(OC)cc4)N(c4ccc(C)c(N=C=O)c4)C(=O)N23)cc1 (stereo unspecified),inactive: > 100 µM
7,COc1ccc(CNC(=O)[C@H](Cc2ccc(O)cn2)NC(C)=O)cc1OC,inactive: > 100 µM
8,C[C@]12Cc3cnc(-c4ccccc4)nc3C[C@@H]1CC[C@@H]1[C@@H]2CC[C@@]2(C)[C@H]1CC[C@]2(C)O,inactive: 12.4 µM
9,COc1cc(/C=C2\C(=O)N(c3cccc(Cl)c3)C(c3ccccc3)S2(=O)=O)cc(OC)c1OC (stereo unspecified),inactive: > 100 µM
10,COc1ccc(/C=C2\N=C(SC)N(CN3CCOCC3)C2=O)cc1,inactive: > 100 µM
11,Nc1c(Cl)cc(-c2nc3ccccc3s2)cc1Cl,inactive: > 100 µM
12,CSc1cc(Cl)c(C)cc1S(=O)(=O)NC(=O)NNc1cnc2ccccc2n1,inactive: > 100 µM
13,O=C(N/N=C1/C(=O)c2c3ccccc3cc3cccc1c23)c1ccccc1,inactive: 36.3 µM
14,O=[Se](O)O,inactive: 1.6 µM
15,CC(=O)Nc1ccc(/C=C/c2ccc(NC(=O)Nc3ccc(/C=C/c4ccc(NC(C)=O)cc4S(=O)(=O)O)c(S(=O)(=O)O)c3)cc2S(=O)(=O)O)c(S(=O)(=O)O)c1,inactive: > 71.6 µM
16,CCCCCCCCCCCCCCCCOP(=O)(O)OP(=O)(O)OCC1OC(n2ccc(N)nc2=O)CC1O (stereo unspecified),inactive: > 100 µM
17,CCN1C[C@]2(C)CC[C@H](OC)C34C1C([C@H](OC(C)=O)[C@@H]32)[C@@]1(OC)C[C@H](OC)[C@H]2C[C@@H]4[C@@H]1[C@H]2O,inactive: > 100 µM
18,CC(=O)O[C@H]1C(=O)[C@@]2(C)[C@H]([C@H](OC(=O)c3ccccc3)[C@]3(O)C[C@H](OC(=O)[C@H](O)[C@@H](NC(=O)CC(C)C)c4ccccc4)C(C)=C1C3(C)C)[C@]1(OC(C)=O)CO[C@@H]1C[C@@H]2O,active: 0.0304 µM
19,O=C1/C(=C/c2ccc([N+](=O)[O-])cc2)CNC/C1=C\c1ccc([N+](=O)[O-])cc1,inactive: 20.3 µM
20,Cc1ccc(C(=O)C#Cc2cnc(O)nc2O)cc1,inactive: 15.4 µM
21,O=C(NCCCCNCCCNC(=O)c1ccccc1)c1ccccc1,inactive: > 100 µM
22,COc1ccc(/C=C\c2cc(OC)c(OC(C)=O)c(OC)c2)cc1,inactive: 18.4 µM
